# In all, about 110,000 compounds were measured (“z-score”: median about -0.1, highest 2% from about 2 on). Some of the results follow. The source made the active and inactive calls.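 Rule for the calls: active = z-score in the third read window above 3 or below -3; inactive = the rest.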
# Molecular target: Metabotropic glutamate receptor 8 (Rattus norvegicus) (UniProt P70579)
# Experiment: mGluR8 Gi/Go-coupled signaling modulation – cell-based, rat, thallium flux, HTS, primary screen (AID 488969)
# Settings: HEK293 rat mGluR8, GIRK (G protein-gated inwardly rectifying potassium channel) thallium flux, FluoZin2; at 10 µM; stronger effect = higher value; submaximal glutamate (EC20) added with thallium
# Sequence of UniProt P70579 (P70579 whole entry, looked up): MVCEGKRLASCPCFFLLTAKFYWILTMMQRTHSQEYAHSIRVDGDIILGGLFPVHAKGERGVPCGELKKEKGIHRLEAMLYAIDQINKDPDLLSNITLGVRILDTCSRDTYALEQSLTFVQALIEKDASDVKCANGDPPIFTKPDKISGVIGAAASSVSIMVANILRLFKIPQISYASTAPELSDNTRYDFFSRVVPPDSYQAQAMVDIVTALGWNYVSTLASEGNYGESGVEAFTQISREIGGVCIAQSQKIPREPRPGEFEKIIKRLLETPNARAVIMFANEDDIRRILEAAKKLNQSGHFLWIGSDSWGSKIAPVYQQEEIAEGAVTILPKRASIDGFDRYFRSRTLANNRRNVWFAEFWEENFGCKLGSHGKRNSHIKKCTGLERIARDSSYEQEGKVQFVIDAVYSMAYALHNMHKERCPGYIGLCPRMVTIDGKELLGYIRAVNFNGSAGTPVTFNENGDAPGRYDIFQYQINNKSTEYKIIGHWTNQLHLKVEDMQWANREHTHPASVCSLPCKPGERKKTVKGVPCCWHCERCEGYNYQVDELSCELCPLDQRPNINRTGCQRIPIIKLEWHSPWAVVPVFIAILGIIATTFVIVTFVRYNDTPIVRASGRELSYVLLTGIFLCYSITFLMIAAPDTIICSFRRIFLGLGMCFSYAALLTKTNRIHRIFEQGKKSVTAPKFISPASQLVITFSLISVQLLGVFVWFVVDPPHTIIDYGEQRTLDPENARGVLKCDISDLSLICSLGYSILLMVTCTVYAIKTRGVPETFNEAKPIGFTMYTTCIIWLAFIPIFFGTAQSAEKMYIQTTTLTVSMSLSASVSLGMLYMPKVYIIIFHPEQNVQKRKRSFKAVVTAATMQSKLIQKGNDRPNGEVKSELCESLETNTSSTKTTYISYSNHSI
row,SMILES,z-score
1,COc1ccc(CNC(=O)COC(=O)c2cccnc2Nc2cccc(C(F)(F)F)c2)cc1,0.199
2,COc1cccc(C(=O)CN2CCN(S(=O)(=O)c3cccc([N+](=O)[O-])c3)CC2)c1,-0.00706
3,Cc1ccc(NC(=O)CCN2CCc3ccccc3C2)cc1,0.0332
4,CN(Cc1ccccc1)Cc1nc2c([nH]1)c(=O)n(C)c(=O)n2C,1.55
5,C=C(C)CNC(=S)N/N=C(\C)c1ccc(OC)cc1,-1.56
6,CCCOC(=O)NC1CCS(=O)(=O)C1 (stereo not drawn),0.764
7,CC1(C)CC2CC(C)(CN2C(=O)COC(=O)Cn2[nH]c(=O)c3ccccc3c2=O)C1 (stereo not drawn),0.177
8,O=C(CCc1ccccc1)Nc1nnc(-c2ccc3c(c2)CCCC3)o1,-0.145
9,COC(=O)c1ccc(NC(=O)C2CCCN2S(=O)(=O)c2ccc(F)cc2)cc1 (stereo not drawn),-0.134
10,CCC(=O)Nc1nc(C)c(C(=O)NC2CCCCC2)s1,-0.247
11,O=C(c1ccco1)[C@@H]1[C@@H]2C(=O)N(c3ccc(F)cc3)C(=O)[C@@H]2C2c3ccccc3C=CN21 (stereo partly drawn),-0.228
12,O=C1CC(c2cccs2)CC(O)=C1C=NCCN1CCNCC1 (stereo not drawn),-0.472
13,COC(=O)N/N=C/c1cn(CC(C)COc2ccccc2)c2ccccc12 (stereo not drawn),0.0657
14,CC(C)(C)S(=O)(=O)c1cnc2c(-c3ccc(Cl)cc3)cnn2c1N,-0.395
15,Cc1ccc(OCc2nnc(SCc3cc(=O)[nH]c4ccccc34)o2)cc1,-0.236
16,O=C(Cn1c(=O)oc2cc(S(=O)(=O)N3CCCC3)ccc21)NCc1ccc(F)cc1,-0.0122
17,CCOC(=O)c1[nH]c(C)c(C(=O)Nc2ccc3c(c2)OCCO3)c1C,-0.196
18,Cc1ccc(C(=O)CNc2ccc(C)c(Cl)c2)cc1,-0.129
19,CCN(CC)c1ccc(NC(=O)CCCCCN2C(=O)c3ccccc3C2=O)cc1,-0.712
20,COC(=O)c1cc(OC)c(OC)cc1NC(=O)Cn1nnc(-c2ccccc2Cl)n1,-0.0538
21,CCCNC(=O)CSc1nnc(-c2ccccc2Br)n1-c1cccc(C(F)(F)F)c1,-0.103
22,CCCn1c(C(O)c2ccc3c(c2)OCO3)nc2ccccc21 (stereo not drawn),-1.87

row,SMILES,z-score
1,Cc1cc(-c2cccs2)c2c(n1)sc1c(=O)[nH]c(=O)[nH]c12,-0.325
2,O=C(CSc1nc(-c2ccccc2)cc(=O)[nH]1)N1CCOCC1,-0.697
3,CCCOC(=O)c1ccc(-c2ccc(C=O)o2)cc1,-0.605
4,C/C(=C\C(=O)c1ccc(C)cc1)Nc1ccc(N2CCOCC2)cc1,-0.391
5,CCN(CC)CCn1c(=N)n(CCOc2ccccc2)c2ccccc21,0.928
6,O=C(Nn1c(-c2ccc(Cl)cc2)nc2ccccc2c1=O)c1cccnc1Cl,-0.0234
7,O=C(N1CCCCCC1)N1CCN(S(=O)(=O)N2CCOCC2)CC1,0.451
8,O=C(NCCc1ccccc1)c1ccc(NC2=NC3CS(=O)(=O)CC3S2)cc1 (stereo not drawn),0.062
9,Cc1cccc(-n2c(=O)c(C#N)cc3c(=O)n4ccccc4nc32)c1,0.441
10,O=C(Cn1cnc([N+](=O)[O-])n1)N/N=C/c1ccc2ccccc2c1,1.94
11,O=C(Nc1sc2c(c1C(=O)O)CCCCC2)c1ccco1,-0.14
12,CC(C)NC(=O)NC(=O)COc1c(F)c(F)cc(F)c1F,-0.224
13,CCC(CO)NCc1ccc(OC2CCCC2)cc1 (stereo not drawn),0.112
14,COc1ccc(CC(CC(=O)O)C(=O)Nc2ccc(OC)cc2)cc1 (stereo not drawn),-0.208
15,Cc1nnc(SCCn2c(N3CCN(Cc4ccccc4)CC3)nc3c2c(=O)[nH]c(=O)n3C)s1,-0.0178
16,COc1cc2[nH]c(=O)n(CCC(=O)NCCC(C)C)c(=O)c2cc1OC,0.171
17,CCC(C)C(NC(=O)c1ccccc1NC(=O)c1ccco1)C(=O)O (stereo not drawn),0.0664
18,COCCCNC(=O)c1ccc(Cn2c(=O)c3ccccc3n(Cc3ccccc3C#N)c2=O)cc1,-0.126
19,CCCC(=O)Nc1ccc(Cl)c(NC(=O)CC)c1,0.149
20,COc1ccc2c(c1)[nH]c1c(=O)n(Cc3ccco3)cnc12,-0.0841
21,O=C(O)CSc1cc(C(F)(F)F)nc(-c2ccccn2)n1,-0.0962
22,Cc1ccc(S(=O)(=O)Cc2ccc(C(=O)NCc3ccc4c(c3)OCO4)o2)cc1,-0.326

row,SMILES,z-score
1,Nc1[nH]c(=S)[nH]c(=O)c1-c1ccccc1,2.2
2,Cc1ccc(/C(O)=C2\C(=O)C(=O)N(CCCN(C)C)C2c2ccccn2)cc1 (stereo not drawn),0.768
3,COC(=O)c1sc2nc(C)cc(-c3ccccc3)c2c1N,-0.0404
4,CCN1CCN(c2cc(-c3ccccc3)nc3cc(-c4cccc(F)c4)nn23)CC1,-0.17
5,COc1ccc(OC)c(NC2c3ccccc3C(=O)N2Cc2ccc3c(c2)OCO3)c1 (stereo not drawn),-0.654
6,N#Cc1ccccc1NC(=O)c1ccc(-c2ccccc2Cl)o1,0.136
7,Cc1ccccc1NC(=O)CCN1C(=O)CSC1=O,0.157
8,O=C(c1cc2ncc(Br)cn2n1)N1CCOCC1,-0.556
9,CN(C)S(=O)(=O)c1ccc(N2CCCC2)c(C(=O)NC(c2ccccc2)c2ccccc2)c1,0.126
10,O=C(CN(C(=O)CSc1nc2ccccc2o1)c1cccc(F)c1)NC1CCCCC1,-0.136
11,O=C(NCCc1ccccc1F)C(=O)Nc1nccs1,-0.00522
12,CCOC(=O)c1sc(NC(=O)CSc2nc3c(c(-c4ccc(OC)cc4)c2C#N)CCCC3)c(C#N)c1C,-0.231
13,Cc1ccc(N(CC(=O)N2CCc3ccccc32)S(=O)(=O)c2cccs2)cc1,1.1
14,Cc1ccc(C(=O)Nc2ccc(O)cc2C(=O)O)cc1C,-0.288
15,Cc1ccc(CNC2=NCCCCC2)n1C,0.783
16,O=C(Nc1ccc2c(c1)CCC2)c1cccc(S(=O)(=O)Nc2ccccc2Cl)c1,-0.109
17,COc1ccc(-c2cccc(C(=O)Nc3ccc(C)cc3)c2)cc1,0.0313
18,C=CCNC(=O)CC(=O)N/N=C/c1ccc(F)cc1,-0.18
19,O=C(NCc1ccccc1)c1ccc2c(=O)n(CCCN3CCCC3=O)c(=S)[nH]c2c1,active: 4.92
20,CCOC(=O)C1=C(C)N=c2s/c(=C\c3ccc(OCC(=O)O)cc3)c(=O)n2C1c1ccc(OC(C)C)cc1 (stereo not drawn),-0.361
21,CC(C)(C)c1ccc(CSc2nnc(-c3ccccn3)n2Cc2ccco2)cc1,-0.295
22,O=C(CSc1nc(-c2ccco2)cc(C(F)(F)F)n1)NCCc1ccccc1,0.104

row,SMILES,z-score
1,CS(=O)(=O)N(CC(=O)NCCSc1ccc(Cl)cc1)c1ccc2c(c1)OCO2,0.176
2,CC1(C)C/C(=C(/C#N)C(N)=O)CCO1,-0.0474
3,Cc1onc(-c2ccccc2Cl)c1C(=O)Nc1nc2c(s1)CCCC2,-0.885
4,COc1ccc(C(=O)N2CCCC(C(=O)N3CCCCCC3)C2)cc1 (stereo not drawn),0.0229
5,COc1ccc(CCNc2ccc(S(=O)(=O)N3CCCC3)cc2[N+](=O)[O-])cc1,0.132
6,CCCCn1c(NC(=O)c2ccccc2)c(C#N)c2nc3ccccc3nc21,-0.0234
7,Cc1cc(-n2c(C)cc(C(=O)COC(=O)CN=C3NS(=O)(=O)c4ccccc43)c2C)no1,0.00163
8,CCn1cc(C(=O)N2CC(C)CC(C)C2)c(=O)c2cc(S(=O)(=O)N3CCOCC3)ccc21 (stereo not drawn),-0.0127
9,CCOC(=O)c1ccc(NC(=O)C2C3CCC(C3)C2C(=O)O)cc1 (stereo not drawn),0.472
10,Fc1cccc(Cl)c1Cn1nnc2c(N3CCC4(CC3)OCCO4)ncnc21,0.0505
11,CCOC(=O)N1CCN(C2=NC3(CCCCC3)C(C#N)C(=O)N2)CC1 (stereo not drawn),0.49
12,CC(C)N1CCc2[nH]c(=S)[nH]c(=O)c2C1,-0.199
13,CCOC(=O)c1sc(NC(=O)c2cccs2)nc1C,0.881
14,COc1ccc(C2CC(C(F)(F)F)n3ncc(C(=O)NCC4CCCO4)c3N2)cc1OC (stereo not drawn),-0.582
15,O=C(NC1C(=O)NNC1c1ccccc1)c1ccc(F)cc1 (stereo not drawn),0.46
16,O=C(O)c1ccc(COc2ccccc2/C=C2/NC(=O)N(c3cccc(Cl)c3)C2=O)cc1,-0.502
17,COc1ccc(CCNC(=O)CSc2nnc(CNC(=O)c3ccccc3F)o2)cc1OC,-0.112
18,CCCOc1c(Br)cc(C(=O)NCC)cc1OC,0.0209
19,CCc1nn2c(N)c(/C=C3\C=Nc4ccccc43)c(=O)nc2s1,-0.53
20,Cc1ccccc1Cn1ccc(NC(=O)c2cnn3c(C(F)(F)F)cc(-c4ccco4)nc23)n1,-1.34
21,Cc1ccc(S(=O)(=O)Nc2cc(C(=O)O)ccc2N2CCCCC2)cc1,0.161
22,Cc1cc(C)n(-c2nc3ccccc3c(=O)n2OCC(=O)N(C)C)n1,0.0136

row,SMILES,z-score
1,CC1CCCCN1Cc1nc2c(c(=O)n(C)c(=O)n2C)n1CCCc1ccccc1 (stereo not drawn),-0.392
2,CN(CC(=O)Nc1ccccc1N1CCOCC1)S(=O)(=O)c1ccc(F)cc1,0.0842
3,Fc1ccc2c(c1)C(c1ccncc1)=NNC(c1ccc(Br)cc1)=N2,-0.256
4,Cc1cccc(NC(=S)NC2CCCC2)c1,0.36
5,O=C(NC1CCCCC1)N1CCN(c2ncccn2)CC1,0.458
6,Cc1noc(C)c1CSc1ccc2ccccc2n1,-0.787
7,Cn1c(=O)c2c(SC3CCCC3)nc(C3CC3)nc2n(C)c1=O,-0.0445
8,Cc1cccc(OCc2nc(C)cc(=O)[nH]2)c1,0.559
9,CC(C)CC(=O)c1c[nH]c(C(=O)NCCCN2CCOCC2)c1,-0.72
10,CCc1cc(/C(Cc2ccccn2)=N\O)c(O)cc1O,-0.234
11,Cn1c(CSCc2ccc(F)cc2)nnc1SCC(=O)Nc1nccs1,0.274
12,Cc1cc(C(=O)COC(=O)Cc2n[nH]c(=O)c3ccccc23)c(C)n1-c1ccc2c(c1)OCCO2,-0.104
13,CC1CCCC(C)N1S(=O)(=O)c1ccc(NC(=O)CCn2cnc3ccccc3c2=O)cc1 (stereo not drawn),-0.218
14,CCC(C)NC(=O)c1cc(Cl)ccc1OC (stereo not drawn),-0.0546
15,COc1ccc(NC(=S)NN2CCN(C)CC2)cc1,-0.193
16,O=C(COC(=O)Cn1cnc2ccccc2c1=O)Nc1ccc(Cl)c(C(F)(F)F)c1,-0.01
17,NC(=O)C1(c2ccccc2)CCOCC1,0.0345
18,Cc1c(S(=O)(=O)N2CCN(C(=O)c3ccco3)CC2)c(=O)n(C)c(=O)n1C,-0.147
19,CCOC(=O)c1c(-c2ccncc2)csc1N,0.423
20,CCOC(=O)C1=C(CSc2nc3ccccc3s2)NC(=O)NC1c1cc(C)ccc1C (stereo not drawn),-0.197
